Measured values from publication PMC4336329 (PLoS ONE, 2015).
Among all 310,000 compounds or so, about 2,200 (0.71%) showed an effect of 50% or more. Effects have a minus sign here. Some of the results follow. Where a SMILES comes first, the peptide text is derived from it. [ ]: non-standard residue; d: D form. The star is where a group is joined. PhAc = O=C(Cc1ccccc1)*

What follows are compounds tested against human ether-à-go-go-related gene (hERG) potassium channel (human, UniProt Q12809) (assay: primary screen, population patch clamp on CHO cells stably expressing hERG).
Sequence of human ether-à-go-go-related gene (hERG) potassium channel (Q12809 whole entry, looked up): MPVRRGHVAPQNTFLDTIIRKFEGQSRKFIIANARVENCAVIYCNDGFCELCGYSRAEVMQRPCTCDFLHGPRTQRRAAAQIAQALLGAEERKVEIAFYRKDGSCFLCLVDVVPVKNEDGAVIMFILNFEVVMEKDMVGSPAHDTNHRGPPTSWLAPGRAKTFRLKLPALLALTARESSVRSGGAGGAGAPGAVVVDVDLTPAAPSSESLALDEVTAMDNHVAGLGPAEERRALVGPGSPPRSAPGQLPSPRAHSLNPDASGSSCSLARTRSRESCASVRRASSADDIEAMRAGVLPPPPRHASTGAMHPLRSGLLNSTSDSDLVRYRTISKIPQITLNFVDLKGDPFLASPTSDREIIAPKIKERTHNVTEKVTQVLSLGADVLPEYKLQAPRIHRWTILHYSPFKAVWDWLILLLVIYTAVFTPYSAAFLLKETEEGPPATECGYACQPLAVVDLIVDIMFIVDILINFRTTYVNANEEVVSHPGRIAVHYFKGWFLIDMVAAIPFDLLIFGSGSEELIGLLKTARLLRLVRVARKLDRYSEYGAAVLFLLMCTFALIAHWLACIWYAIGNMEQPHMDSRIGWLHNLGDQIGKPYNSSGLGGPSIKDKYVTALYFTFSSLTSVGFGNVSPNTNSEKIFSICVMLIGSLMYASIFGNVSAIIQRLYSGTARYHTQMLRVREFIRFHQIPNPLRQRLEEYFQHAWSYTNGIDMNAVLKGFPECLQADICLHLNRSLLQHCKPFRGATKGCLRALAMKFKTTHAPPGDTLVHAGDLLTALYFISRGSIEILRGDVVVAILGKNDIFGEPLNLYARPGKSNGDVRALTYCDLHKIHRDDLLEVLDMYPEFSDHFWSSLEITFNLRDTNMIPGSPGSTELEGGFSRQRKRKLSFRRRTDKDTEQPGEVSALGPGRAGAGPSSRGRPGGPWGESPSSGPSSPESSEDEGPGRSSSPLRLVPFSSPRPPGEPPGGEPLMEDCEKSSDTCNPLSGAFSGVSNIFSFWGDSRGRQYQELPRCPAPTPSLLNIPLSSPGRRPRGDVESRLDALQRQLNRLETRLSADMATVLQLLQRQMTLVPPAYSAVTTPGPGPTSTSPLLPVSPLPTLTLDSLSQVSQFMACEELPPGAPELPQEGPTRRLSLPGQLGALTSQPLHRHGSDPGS

SMILES	hERG current change (%, negative = inhibition) at 1uM [%]
S=c1[nH]nc(Cc2c[nH]c3ccccc23)o1	0.407
COc1ccc(S(=O)(=O)Nc2nc3ccccc3s2)cc1	11.6
CCN(CC)CCNc1ncnc2c1sc1nc(N3CCOCC3)c3c(c12)CC(C)(C)SC3	-17.5
CC(=O)Nc1ccc(S(=O)(=O)N2CCN(Cc3nc4sc(C)c(C)c4c(=O)[nH]3)CC2)cc1	10.1
Cc1[nH]nc2c1C(CCc1ccccc1)C(C#N)=C(N)O2 (centres unmarked)	-1.73
Cc1ccc(C(=O)N/N=C2\SCC(=O)N2c2cc(C)ccc2C)cc1	7.94
CCOc1ccc(-c2noc(CCC(=O)NC3CCCC3)n2)cc1OC	12.8
COc1ccc(P(=O)(COc2ccc([N+](=O)[O-])cc2)c2ccc(OC)cc2)cc1	-30.8
O=C(/C=C/Nc1ccc(F)cc1)c1ccc(Br)cc1	11
O=C(Nc1cccc(C(=O)N2CCOCC2)c1)c1ccccc1Br	13.2
CC(C)Oc1ccc(C(=O)N2CCN(C(=O)c3ccco3)CC2)cc1	5.43
Cc1cc(C)c(C#N)c(N2CCOCC2)n1	11.5
O=C(NS(=O)(=O)Oc1ccc(F)c(Cl)c1)OC[C@@H]1CCCN2CCCCC12 (some centres unmarked)	9.28
CS(=O)(=O)N(CC(=O)N1CCN(Cc2ccc3c(c2)OCO3)CC1)c1ccc2c(c1)OCO2	-28
CCc1nnc(NS(=O)(=O)c2ccc(N=CC3=C(O)CC(C)(C)CC3=O)cc2)s1	19.9
COc1ccc(NC(=O)CSc2n[nH]c(-c3ccccn3)n2)cc1	13
O=C(N/N=C/c1ccccn1)c1ccncc1	14.2
O=C(CCN1C(=O)/C(=C/c2ccccc2Cl)SC1=S)NC1CCCC1	8.37
Cc1cc(/C=C2\C(=O)NC(=O)N(c3ccc(Cl)cc3)C2=O)c(C)n1C	17.3
CCn1c(SCC(=O)NCCOC)nc2sc3c(c2c1=O)CCCC3	10.1
C#CCOCCOCCOCCNc1nc(N2CCN(C(=O)[C@H](CCC(=O)O)n3cc(C(N)CO)nn3)CC2)nc(N2CCN(C(=O)[C@H](Cc3ccc(O)cc3)n3cc(C(N)CC(C)C)nn3)CC2)n1.Cl (some centres unmarked)	9.46
CSc1nc(NC(C)(C)C)nc(N2CCOCC2)n1	11.6
CCOC(=O)/C(=N/Nc1ccc(C)cc1)S(=O)(=O)c1ccc(Cl)cc1	7.55

SMILES	hERG current change (%, negative = inhibition) at 1uM [%]
CC(=C1C(=O)c2ccccc2C1=O)N1CCN(CCN=CC2=C(O)CC(C)(C)CC2=O)CC1	-5.68
Nc1oc2ccc(F)cc2c(=O)c1C=O	15.3
O=C(O)c1ccccc1-c1ccccc1C(=O)Nc1nccs1	19.4
Cc1ccc(COc2ccc(C(=O)NN)cc2)cc1	17.8
CCOC(=O)C(=O)NCc1ccc(/C=C2/N=C(C)C(C(=O)OCC)=C2O)o1	9.4
CCC(=O)Nc1nc2ccccc2n1Cc1ccc(Cl)cc1	12.3
O=C(O)CC1(CC(=O)Nc2cccc(C(=O)O)c2)CCCC1	22.2
CC(=O)NC1C(=O)N(CCN2CCOCC2)c2ccc(Cl)cc21.Cl (centres unmarked)	11.9
COc1ccccc1N=C(C)C1=C(O)CSC1=O	12.1
CCOC(=O)C1(Cc2ccc(OC)cc2)CCN(C(=O)CN2CCN(CC)CC2)CC1	-15.4
COC(=O)c1nc2n(n1)C(c1cccc(Cl)c1)C1=C(CCCC1=O)N2 (centres unmarked)	10.5
CCCCCC(=O)Nc1cccc(-c2nc3ncccc3o2)c1	0.93
CC1=C(C(=O)OCC(C)C)C(c2cc3c(cc2Br)OCO3)NC(=O)N1C (centres unmarked)	3.4
CC(C)(C)NC(=O)Cn1c(=O)n(CC(=O)NC(C)(C)C)c2ccccc21	6.35
Cc1ccc(CNC(=O)CSc2nc3n[nH]c(C)c3c(=N)n2-c2cccc(C)c2)cc1	-4.56
COC(=O)CN=Cc1c(O)n(-c2ccc(Cl)cn2)c(=O)c2ccccc12	7.5
CN(CC(=O)NCCc1ccc(F)cc1)Cc1ccccc1	7.06
COCCNC(=S)N1CCN(Cc2cccc(OC)c2)CC1	11.9
COc1ccc(N2C(=O)C3C4C=CC(CC4)C3C2=O)c([N+](=O)[O-])c1 (centres unmarked)	-0.878
CCCOC(=O)Nc1ccc(S(=O)(=O)Nn2cnnc2)cc1	14.1
Cc1ccc(C(=O)N2CCN(c3ccc([N+](=O)[O-])c(N4CCOCC4)c3)CC2)cc1	-12.1
COC(=O)C1NC(=O)N2C(C(=O)OC)C(C)(C)S[C@H]12 (some centres unmarked)	19.7
O=C(O)C(=O)O.O=C(c1cccnc1)N1CCN(Cc2ccccc2Br)CC1	14.4

SMILES	hERG current change (%, negative = inhibition) at 1uM [%]
CCOc1ccc(C2CC(c3ccccc3)Nc3nc(N)nn32)cc1 (centres unmarked)	1.33
CC(C)(C)OC(=O)N1CCC[C@@H]1C(=O)N1CCC(C(=O)O)CC1	16.5
CS(=O)(=O)c1ccc2nc(NC(=O)c3ccc(N4CCCC4=O)cc3)sc2c1	5.46
CC(C)C[C@@H](NC(=O)[C@H]1CCCN1C(=O)Cc1ccccc1)C(N)=O (PhAc-[dP]-[dL]-NH2)	24
CSc1nsc(SC)c1C(N)=O	12
O=C(O)COc1ccccc1/C=C1\C(=O)Nc2ccc(Br)cc21	9.26
CCOC(=O)C1CCN(c2ncnc3nc[nH]c23)CC1	-1.39
CCOc1ccc(C(=O)Nc2ccccc2N2CCN(C(=O)c3ccccc3)CC2)cc1[N+](=O)[O-]	-84
CCc1nc(SCc2ccc(OC)c(Br)c2)n[nH]1	0.314
CCOC(=O)c1c(NC(=O)c2ccc(S(=O)(=O)N(C)CC3CCCO3)cc2)sc2c1CCN(C)C2.Cl (centres unmarked)	11.3
CCOC(=O)Cc1c(C)nc2c(-c3cccc(Br)c3)cnn2c1C	11.2
Cc1ccc(Nc2nnc(SCC(=O)NC3CC3)s2)cc1	5.38
COC(=O)C1=C(C)N(Cc2ccc(C)cc2)C(=O)/C1=C\c1cc(OC)c(OC)c(OC)c1	14.9
CC(=O)Nc1ccc(S(=O)(=O)N(C)c2ccc(OCC(=O)OCC(=O)NCc3ccco3)cc2)cc1	7.18
CC(C)NC(=O)COC(=O)c1ccccc1CSC1=NCCS1	13
Cc1cc2nc3n(c2cc1C)CC1CC(C(=O)NCC2CC2)N(C)C31 (centres unmarked)	8.23
Cc1ccc(C(=O)O)cc1NC(=O)Nc1cccc2ccccc12	10.4
Cn1cccc1/C=N/n1c(-c2ccccc2)n[nH]c1=S	8.01
Cc1ccc(S(=O)(=O)NCCCN(C)C)cc1.Cl	1.55
COc1cccc(NC(=S)N2CCN(C)CC2)c1	7.73
Cc1nnc2n(C3CCCCC3)c(=O)c3c4c(sc3n12)COC(C)(C)C4	3.79
N#CC(/C(=N/S(=O)(=O)c1cccs1)c1ccccc1)c1nc2ccccc2[nH]1 (centres unmarked)	11.6
COC(=O)CSc1nnc2n1C(C)(C)Cc1ccccc1-2	7.32

SMILES	hERG current change (%, negative = inhibition) at 1uM [%]
Cn1c(SCC(=O)c2ccc3c(c2)NC(=O)CO3)nc2ccccc21	8.01
COC(=O)c1nnn(-c2nonc2N)c1COc1ccc(C=O)cc1OC	-1.8
CN(Cc1ccccc1)C(=O)CN(Cc1ccccc1)S(C)(=O)=O	8.26
Cc1nc2ccc(Br)cn2c1C(=O)N/N=C\c1ccc(C(C)C)cc1	17.1
COCCCn1c(SCC(N)=O)nnc1-c1ccccc1	2.18
CC(=O)Cc1nsc(NC(=O)c2ccc(Cl)cc2Cl)n1	1.23
OCCN1CCN(c2ncnc3c2c(-c2ccccc2)cn3-c2ccc(F)cc2)CC1	-7.44
Cc1ccc(C23CCC(=O)N2C(C(=O)O)CS3)c(C)c1 (centres unmarked)	13.4
Cc1[nH]c(C(=O)O)c(C#N)c1C(=O)c1ccccc1	14.8
Cc1c(Cl)cccc1NC(=S)NC(=O)CCN1C(=O)c2ccccc2C1=O	6.66
Cc1ccc(NC(=S)N2CCN(Cc3ccccc3)CC2)c(C)c1	9.22
FC(F)(F)c1cccc(CNC(=S)Nc2ccccc2)c1	7.03
COCc1cc(=O)n2[nH]c(SC)nc2n1	-12.9
CC(=O)Nc1cc(-c2ccc(Cl)cc2)nn1-c1ccccc1	10.1
Cc1ccc(C)c(NC(=S)N2CCC(NC(=O)c3ccc(F)cc3)CC2)c1	17.7
COC(=O)C(C)Oc1ccc2c(c1)O/C(=C\c1cccc(Br)c1)C2=O (centres unmarked)	1.18
O=C(NNC(=O)C1CCN(S(=O)(=O)c2cccc(C(F)(F)F)c2)CC1)C1CC1	7.48
CCCCC(CC)C(=O)Nc1ncc([N+](=O)[O-])s1 (centres unmarked)	5.38
Cc1cc(-c2nnc(CCC(=O)NCc3ccc(F)c(F)c3)o2)no1	13.6
O=S(=O)(NC1C2CC3CC(C2)CC1C3)c1ccccc1 (centres unmarked)	6.23
